Experimental data published in PubChem BioAssay (NCATS).
Inconclusive results, whose numbers are uncertain, are shown with a selection of clear calls. For some of these results: Potencies of inconclusive entries are doubtful fits and often do not repeat. Calls of active or inactive are those of the source. Unless noted, the call rests on the fitted dose curve; in most records, active means well fitted curve in the direction sought with a large enough effect; inconclusive means small, poorly fitted or top-dose-only effect, or another doubt; inactive means no such curve, though single readings can be large; an effect the other way counts as inactive or inconclusive.

Assays:
[1] = qHTS of pediatric cancer cell lines to identify multiple opportunities for drug repurposing: Primary screen for A673 cells (AID 1347092); conditions: A673 Ewing sarcoma viability, CellTiter-Glo ATP luminescence, 48 h; activity change, negative = cytotoxic: at 46 µM (top of the series); further: potency means the concentration at half of the fitted maximal effect; nearly all actives have a fitted effect of over 45% in size
Method in brief: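 A673 cells (500-1,000 cells/well) were treated 48 hours at 37 degrees C with compounds at 11-point (0.78 nM to 46 µM) or 8-point (0.59 nM to 46 µM) dilutions. Viability read by CellTiter-Glo luminescence; concentration-response curves fitted.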

[2] = qHTS of pediatric cancer cell lines to identify multiple opportunities for drug repurposing: Primary screen for SK-N-MC cells (AID 1347093); conditions: SK-N-MC viability, CellTiter-Glo luminescence, 48 h; activity change, negative = cytotoxic: at 46 µM (top of the series); further: potency means the concentration at half of the fitted maximal effect;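 on activity change, negative = cytotoxic: plate controls were DMSO neutral control for no effect and bortezomib for full effect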
Method in brief: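 Metabolically active cells were quantified by ATP-dependent luminescence (CellTiter-Glo, 15 min at room temperature) following 48 h treatment. Cells had been plated at 500-1,000 per well and settled for 5 h beforehand.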

[3] = qHTS of pediatric cancer cell lines to identify multiple opportunities for drug repurposing: Primary screen for Saos-2 cells (AID 1347097); conditions: Saos-2 viability, CellTiter-Glo ATP luminescence, 48 h; activity change, negative = cytotoxic: at 46 µM (top of the series); further: potency means the concentration at half of the fitted maximal effect; nearly all actives have a fitted effect of over 40% in size
Method in brief: (§1)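 ATP-based luminescence (CellTiter-Glo) quantifies viability after a 48-hour exposure. Compounds are dosed across 8 or 11 final concentrations; DMSO and 2.3 µM bortezomib serve as controls.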

[4] = qHTS of pediatric cancer cell lines to identify multiple opportunities for drug repurposing: Primary screen for SK-N-SH cells (AID 1347098); further: potency means the concentration at half of the fitted maximal effect; nearly all actives have a fitted effect of over 65% in size
Method in brief: (§2)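 Cells (500-1,000/well) rested 5 h, then received compounds for 48 h; metabolically active cells were measured by CellTiter-Glo luminescence. Final concentrations spanned up to 46 µM (MIPE, 11-point) or 0.59 nM-46 µM (NPC, 8-point) in primary screens, 11-point in follow-ups.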

[5] = qHTS of pediatric cancer cell lines to identify multiple opportunities for drug repurposing: Primary screen for BT-12 cells (AID 1347101); further: nearly all actives have a fitted effect of over 25% in size; further: potency means the concentration at half of the fitted maximal effect;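 on activity change, negative = cytotoxic: plate controls were DMSO for no effect and bortezomib positive control for full effect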
Method in brief: as §2

[6] = qHTS of pediatric cancer cell lines to identify multiple opportunities for drug repurposing: Primary screen for Rh18 cells (AID 1347102); further: nearly all actives have a fitted effect of over 65% in size; further: potency means the concentration at half of the fitted maximal effect; on activity change, negative = cytotoxic: on the % scale 0 is the no-effect control and ±100 the full control effect
Method in brief: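 Viability after 48 h compound treatment at 37C, 500-1,000 cells/well, read as ATP luminescence with CellTiter-Glo. Primary screens used 11-point (MIPE, 0.78 nM-46 µM) or 8-point (NPC, 0.59 nM-46 µM) final concentrations; follow-up screens used 11-point dilutions.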

[7] = qHTS of pediatric cancer cell lines to identify multiple opportunities for drug repurposing: Primary screen for OHS-50 cells (AID 1347103); conditions: OHS-50 osteosarcoma viability, CellTiter-Glo luminescence, 48 h; activity change, negative = cytotoxic: at 57.3 µM (top of the series); further: potency means the concentration at half of the fitted maximal effect; nearly all actives have a fitted effect of over 40% in size
Method in brief: as §2

[8] = qHTS of pediatric cancer cell lines to identify multiple opportunities for drug repurposing: Primary screen for Rh41 cells (AID 1347108); further: nearly all actives have a fitted effect of over 70% in size; further: potency means the concentration at half of the fitted maximal effect;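 on activity change, negative = cytotoxic: luminescence drop marks cytotoxic hits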
Method in brief: as §1

MKL-2 = experiment: qHTS assay to identify novel small-molecules to repurpose for Merkel cell carcinoma treatment (AID 1296009); conditions: MCC and control cell lines, CellTiter-Glo viability, 72 h; activity change, negative = cytotoxicity: at 46 µM (top of the series); further: nearly all actives have a fitted effect of over 60% in size; further: potency means the concentration at half of the fitted maximal effect; on activity change, negative = cytotoxicity: on the % scale 0 is the no-effect control and ±100 the full control effect
Method in brief: (§3)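 Dose-response viability screen; 72 hr exposure at 37 degree celsius; CellTiter-Glo added, 10 min room temperature, luminescence read; RLUs scaled between no-cell and DMSO wells.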

UISO = experiment: as above; conditions: MCC and control cell lines, CellTiter-Glo viability, 72 h; series mostly up to 46 µM
Method in brief: as §3

[9] = NFAT Signaling Pathway (AID 444; active means well fitted curve in either direction with a large enough effect, not every such curve was filed as active; inconclusive means small, poorly fitted or top-dose-only effect, or another doubt;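 further: carbachol stimulus at about its EC50 of 1 µM final; on the % scale 0 is the no-effect control and ±100 the full control effect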); conditions: Jurkat NFAT-bla M1, carbachol, beta-lactamase ratio, 5 h
Method in brief: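 Jurkat cells with NFAT-driven β-lactamase reporter and co-expressed M1 receptor, stimulated with carbachol (final 1 uM, ~EC50), compound titration, 5 h at 37 °C. CCF4 loaded 1 h at RT; 460/530 nm ratio gave %activity and AC50.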

[10] = A High-Content qHTS Against Drug Library for the Identification of Small Molecules that Inhibit DYT1 Early Onset Primary Dystonia-Associated Cell Pathology (AID 1645839; calls by dose curve)
Method in brief: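 Cells were seeded and left for 24 h, then dosed with compound alongside tetracycline induction of mutant EGFP-TorsinA. They were incubated for 48 h, fixed in 4% paraformaldehyde, permeabilized and imaged for mislocalization (%pathology) and cell count.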

[11] = Drug repurposing screens with cells derived from glioblastoma tumor samples (AID 1345199); conditions: GBM patient neurospheres viability, ATP luminescence, 48 h; Potency: tumour line A unless noted; activity, negative = cell killing: at 46 µM (top of the series), tumour line A unless noted; further: nearly all actives have a fitted effect of over 40% in size; further: potency means the concentration at half of the fitted maximal effect; on activity, negative = cell killing: on the % scale 0 is the no-effect control and ±100 the full control effect
Method in brief: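 Primary testing used CD133+ neurospheres from four GBM patients, seven concentrations, 48 h exposure and ATP-based viability; confirmation added three slower-growing patient lines.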

GB4 = experiment: qHTS profiling for inhibitors of Plasmodium falciparum proliferation (AID 504749); further: potency means the concentration at half of the fitted maximal effect; nearly all actives have a fitted effect of over 60% in size; conditions: P. falciparum in erythrocytes, SYBR Green DNA, 72 h; series mostly up to 28.7 µM
Method in brief: (§4)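 Each compound contacts P. falciparum-infected red blood cells for 72 h at 37 C; lysis buffer (Tris, EDTA, saponin, Triton X, SYBR Green I) is added and fluorescence measured next morning; values normalized to controls.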

W2 = experiment: as above; conditions: P. falciparum in erythrocytes, SYBR Green DNA, 72 h; activity, negative = inhibition: at 28.7 µM (top of the series)
Method in brief: as §4

[12] = biological target: Cytochrome P450 2C9 (Homo sapiens) (UniProt P11712); experiment: Cytochrome P450 family 2 subfamily C member 9 (CYP2C9) small molecule antagonists: luciferase biochemical (cell-free) qHTS assay (AID 1645842; active means well fitted curve in the direction sought with a large enough effect in the repeat runs; inconclusive means weak or mixed curves; inactive means no such curve, though single readings can be large; an effect the other way counts as inactive or inconclusive; further: potency means the concentration at half of the fitted maximal effect; nearly all actives have a fitted effect of over 55% in size)
UniProt P11712, sequence (P11712 whole entry, looked up): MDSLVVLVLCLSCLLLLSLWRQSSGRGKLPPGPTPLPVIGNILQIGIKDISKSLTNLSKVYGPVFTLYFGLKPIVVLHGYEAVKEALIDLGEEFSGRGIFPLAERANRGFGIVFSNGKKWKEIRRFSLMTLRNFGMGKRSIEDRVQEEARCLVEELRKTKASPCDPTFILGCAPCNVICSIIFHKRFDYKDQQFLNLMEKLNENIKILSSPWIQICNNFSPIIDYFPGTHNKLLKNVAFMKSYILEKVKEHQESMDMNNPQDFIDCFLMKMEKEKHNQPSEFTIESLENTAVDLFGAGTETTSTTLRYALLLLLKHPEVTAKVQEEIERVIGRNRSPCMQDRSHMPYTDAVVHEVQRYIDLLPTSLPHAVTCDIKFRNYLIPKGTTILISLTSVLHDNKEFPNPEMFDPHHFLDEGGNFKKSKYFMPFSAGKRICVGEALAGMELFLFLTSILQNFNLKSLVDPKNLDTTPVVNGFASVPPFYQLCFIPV
Method in brief: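 P450-Glo CYP2C9 system: proluciferin substrate with enzyme in mix containing 0.4% BSA, 10 min at room temperature, then NADPH regeneration solution added and incubated 1 h at 37C. Detection reagent stopped reaction; luminescence read after 20 min as RLU.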

[13] = qHTS of pediatric cancer cell lines to identify multiple opportunities for drug repurposing: Primary screen for SJ-GBM2 cells (AID 1347091);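 further: plate controls were DMSO neutral control for no effect and bortezomib for full effect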
Method in brief: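 Viability measured as metabolically active cells via CellTiter-Glo luminescence following 48 hours of compound exposure, 11-point dilutions in confirmatory testing. 500-1,000 cells/well plated 5 hours before dosing; controls were DMSO and 2.3 µM bortezomib.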
Tags describe the fitted curve by direction and shape.

CCCCN(CCN(CCCC)C(=O)N1CCOCC1)C(=O)N1CCOCC1
inactive: Potency [6]
active: Potency [3] 23.7 µM
inconclusive: Potency [1] 33.5 µM [cytotoxic, single point] | activity change, negative = cytotoxic [2] -42.9% [cytotoxic] | Potency [4] 38.6 µM [cytotoxic, single point] | Potency [5] 13.8 µM [cytotoxic, partial curve] | Potency [7] 21.9 µM [cytotoxic, partial curve, poor fit] | Potency [8] 21.1 µM [cytotoxic, partial curve] | Potency (MKL-2) 33.5 µM [inhibitor, single point] | Potency (UISO) 29.9 µM [inhibitor, single point]

Nc1ccc2c(c1)CN1C(=O)c3ccccc3C1=N2
inconclusive: Potency [1] 14.6 µM [cytotoxic, single point] | Potency [2] 16.4 µM [cytotoxic, single point] | Potency [3] 11.6 µM [cytotoxic, partial curve] | Potency [4] 15 µM [cytotoxic, partial curve] | Potency [5] 6.75 µM [cytotoxic, partial curve] | Potency [6] 11.6 µM [cytotoxic, single point] | Potency [7] 4.78 µM [cytotoxic, partial curve] | Potency [8] 8.2 µM [cytotoxic, single point]

C[N+](C)(C)CCOC(N)=O
inactive: Potency [2] | Potency [5] | Potency [6] | Potency [10] | Potency (MKL-2)
inconclusive: activity change, negative = inhibition ([9]; at 17.2 µM (top of the series)) 80.4% [activator] | activity change, negative = inhibition ([9]; at 38 µM (top of the series)) 55.8% [activator] | Potency [11] 39.8 µM [inhibitor, partial curve, poor fit]

COc1cc(N)c(Cl)cc1C(=O)NC1CCN(Cc2ccccc2)CC1
inactive: Potency [2] | Potency [6] | Potency [8] | Potency (UISO)
inconclusive: Potency [1] 10.6 µM [cytotoxic, partial curve, poor fit] | Potency [4] 8.64 µM [cytotoxic, partial curve, poor fit] | Potency [7] 21.9 µM [cytotoxic, partial curve, poor fit] | Potency (GB4) 5.1 µM [inhibitor, single point] | Potency (W2) 6.42 µM [inhibitor, single point]

COc1cc(-n2cnc3cc(-c4ccc(Cl)cc4)sc3c2=O)ccc1OCCN1CCCC1
inconclusive: Potency [12] 23.9 µM [inhibitor, single point]

CC(=O)[C@@]1(O)CC[C@H]2[C@@H]3C[C@H](C)C4=CC(=O)C=C[C@]4(C)[C@@]3(F)[C@@H](O)C[C@@]21C
inactive: activity change, negative = inhibition ([9]; at 17.2 µM (top of the series)) 9.08% | Potency [2] | Potency [10] | Potency (UISO) | Potency [11]

CC(COc1ccccc1)NC(C)C(O)c1ccc(O)cc1 (centres undefined)
inconclusive: activity change, negative = inhibition ([9]; at 17.2 µM (top of the series)) -34.4% [inhibitor] | Potency [12] 30.9 µM [inhibitor, single point] | Potency [11] 11.2 µM [inhibitor, partial curve]
inactive: Potency (UISO)

COc1cc(C)nc(-n2nc(C)cc2OC)n1
inactive: Potency [13] | Potency [10]
inconclusive: Potency [1] 26.6 µM [cytotoxic, single point] | Potency (UISO) 21.1 µM [inhibitor, single point]
